From EPA's CvTdb concentration-time database
The source gives many values for each of these; only a part stands here.

Tests used:
Assay in all cases: concentration in plasma after dosing
[1] = tested on: Rat; settings: dosed: Isoeugenol, 17 mg/kg, iv, Female, F344/N
[2] = tested on: Rat
[3] = tested on: Rat; settings: dosed: Isoeugenol, 140 mg/kg, oral, Male, F344/N
[4] = tested on: Rat; settings: dosed: Perfluorohexane-1-sulphonic acid – potassium salt, 32 mg/kg, oral, Male, Harlan Sprague Dawley
[5] = tested on: Rat; settings: dosed: Perfluorohexane-1-sulphonic acid – potassium salt, 32 mg/kg, oral, Male, Harlan Sprague Dawley; remark: listed apart in the source
[6] = tested on: Rat; settings: dosed: Perfluorohexane-1-sulphonic acid – potassium salt, 32 mg/kg, oral, Male, Harlan Sprague Dawley; remark: listed apart in the source
[7] = tested on: Rat; settings: dosed: Perfluorohexane-1-sulphonic acid – potassium salt, 32 mg/kg, oral, Male, Harlan Sprague Dawley; remark: listed apart in the source
[8] = tested on: Rat; settings: 192 h; dosed: Perfluorohexane-1-sulphonic acid – potassium salt; 16 mg/kg; oral; Female; F344
[9] = tested on: Rat; settings: dosed: Perfluorohexane-1-sulphonic acid – potassium salt, 32 mg/kg, oral, Male, F344
[10] = tested on: Rat; settings: dosed: Perfluorohexane-1-sulphonic acid – potassium salt, 4 mg/kg, oral, Female, Harlan Sprague Dawley
[11] = tested on: Rat; settings: dosed: Perfluorohexane-1-sulphonic acid – potassium salt, 4 mg/kg, oral, Male, F344
[12] = tested on: Rat; settings: dosed: Perfluorohexane-1-sulphonic acid – potassium salt, 32 mg/kg, oral, Female, Harlan Sprague Dawley
[13] = tested on: Rat; settings: dosed: Perfluorohexane-1-sulphonic acid – potassium salt, 4 mg/kg, Female, F344
[14] = tested on: Rat; settings: 0.5 h; dosed: Fluorotelomer alcohol 8+2; 24 mg/kg; oral; Male; Harlan Sprague Dawley
[15] = tested on: Rat; settings: dosed: Fluorotelomer alcohol 8+2, 48 mg/kg, oral, Male, Harlan Sprague Dawley
[16] = tested on: Rat; settings: 3 h; dosed: Fluorotelomer alcohol 8+2; 24 mg/kg; oral; Male; Harlan Sprague Dawley
[17] = tested on: Rat; settings: 1 h; dosed: Fluorotelomer alcohol 8+2; 24 mg/kg; oral; Male; Harlan Sprague Dawley
[18] = tested on: Rat; settings: 9 h; dosed: Fluorotelomer alcohol 8+2; 80 mg/kg; oral; Female; Harlan Sprague Dawley
[19] = tested on: Rat; settings: 3 h; dosed: Fluorotelomer alcohol 8+2; 40 mg/kg; oral; Female; Harlan Sprague Dawley
[20] = tested on: Rat; settings: dosed: Fluorotelomer alcohol 8+2, 48 mg/kg, oral, Male, Harlan Sprague Dawley; remark: listed apart in the source
[21] = tested on: Rat; settings: dosed: Fluorotelomer alcohol 8+2, 80 mg/kg, oral, Female, Harlan Sprague Dawley

C/C=C/c1ccc(O)c(OC)c1 [Isoeugenol]
concentration in plasma [ng/mL]
Settings	0.5 h	4 h	5 h	20 min
[1]	888	42.2	–	–
[3]	–	–	344	3270

concentration in plasma [ng/mL], [2], dosed: Isoeugenol, F344/N
Settings	Female	Male
0.5 h, 17 mg/kg, iv	1100	1100
0.5 h, 70 mg/kg, oral	450	174
0.5 h, 140 mg/kg, oral	1670	830
0.75 h, 17 mg/kg, iv	386	370
0.75 h, 70 mg/kg, oral	–	192
1 h, 17 mg/kg, iv	271	219
1 h, 70 mg/kg, oral	459	344
1 h, 140 mg/kg, oral	640	–
1.5 h, 17 mg/kg, iv	179	–
1.5 h, 140 mg/kg, oral	–	161
2 h, 17 mg/kg, iv	121	93.6
2 h, 70 mg/kg, oral	138	45.5
2 min, 17 mg/kg, iv	10400	9690
2 min, 70 mg/kg, oral	3200	–
2 min, 140 mg/kg, oral	1900	193
2.5 h, 17 mg/kg, iv	159	48.9
3 h, 17 mg/kg, iv	80.3	41.4
3 h, 70 mg/kg, oral	531	169
3 h, 140 mg/kg, oral	888	643
4 h, 17 mg/kg, iv	31.5	20.5
4 h, 70 mg/kg, oral	252	148
4 h, 140 mg/kg, oral	555	452
5 h, 17 mg/kg, iv	15.8	15
5 h, 70 mg/kg, oral	239	–
5 h, 140 mg/kg, oral	708	378
5 min, 17 mg/kg, iv	6950	7030
5 min, 70 mg/kg, oral	1020	–
5 min, 140 mg/kg, oral	8700	677
6 h, 17 mg/kg, iv	17.2	17.6
6 h, 70 mg/kg, oral	234	–
6 h, 140 mg/kg, oral	715	282
8 h, 70 mg/kg, oral	191	127
8 h, 140 mg/kg, oral	388	584
10 h, 140 mg/kg, oral	321	101
10 min, 17 mg/kg, iv	5000	3190
10 min, 70 mg/kg, oral	931	–
10 min, 140 mg/kg, oral	3370	2590
20 min, 17 mg/kg, iv	1780	2140
20 min, 70 mg/kg, oral	768	–
20 min, 140 mg/kg, oral	1270	748

O=S(=O)([O-])C(F)(F)C(F)(F)C(F)(F)C(F)(F)C(F)(F)C(F)(F)F.[K+] [Perfluorohexane-1-sulphonic acid – potassium salt]
Settings	concentration in plasma [ng/mL]
[4], 0.25 h	38100
[4], 6 h	185000
[4], 528 h	60800
[5], 1 h	88800
[5], 12 h	206000
[5], 864 h	38600
[6], 3 h	153000
[6], 192 h	90600
[6], 1200 h	10200
[7], 1 h	114000
[7], 24 h	178000
[7], 864 h	9990
[9], 3 h	146000
[9], 48 h	52400
[9], 528 h	93
[10], 1 h	15900
[10], 24 h	21400
[10], 288 h	346
[11], 6 h	25100
[11], 96 h	8260
[12], 1 h	142000
[12], 24 h	81600
[12], 288 h	1160
[13], 1 h	41800
[13], 24 h	31300
[13], 1200 h	7110

concentration in plasma [ng/mL], [2], dosed: Perfluorohexane-1-sulphonic acid – potassium salt, 4 mg/kg, Female
Settings	F344	Harlan Sprague Dawley
0.25 h	40000	–
1 h	38200	33200
3 h	32400	34700
5 min	68100	61100
6 h	31000	–
12 h	25000	–
24 h	30900	–
48 h	–	9110
96 h	–	4900
192 h	15200	–
528 h	11100	–
864 h	8140	–

concentration in plasma [ng/mL], [2], dosed: Perfluorohexane-1-sulphonic acid – potassium salt, oral
Settings	4 mg/kg	16 mg/kg	32 mg/kg
0.25 h, Female, F344	9720	–	–
0.25 h, Female, Harlan Sprague Dawley	11100	45700	57100
0.25 h, Male, F344	–	17000	–
0.25 h, Male, Harlan Sprague Dawley	–	–	66200
1 h, Female, Harlan Sprague Dawley	20000	79800	132000
1 h, Male, F344	–	61100	–
1 h, Male, Harlan Sprague Dawley	–	–	96800
3 h, Female, F344	–	123000	–
3 h, Female, Harlan Sprague Dawley	21600	90600	–
3 h, Male, F344	–	–	156000
3 h, Male, Harlan Sprague Dawley	–	–	25700
6 h, Female, F344	23600	123000	–
6 h, Female, Harlan Sprague Dawley	–	95300	123000
6 h, Male, F344	22800	–	–
6 h, Male, Harlan Sprague Dawley	–	–	191000
12 h, Female, F344	24400	136000	–
12 h, Female, Harlan Sprague Dawley	26500	89500	106000
12 h, Male, Harlan Sprague Dawley	–	–	226000
24 h, Female, F344	–	116000	–
24 h, Female, Harlan Sprague Dawley	18800	58800	67800
24 h, Male, Harlan Sprague Dawley	–	–	180000
48 h, Female, Harlan Sprague Dawley	10900	39500	–
48 h, Male, F344	–	–	51500
96 h, Female, F344	9390	–	–
96 h, Female, Harlan Sprague Dawley	–	21400	24100
96 h, Male, F344	8540	–	–
192 h, Female, F344	3260	70400	–
192 h, Female, Harlan Sprague Dawley	3580	4950	2090
192 h, Male, Harlan Sprague Dawley	–	–	91100
288 h, Female, Harlan Sprague Dawley	576	963	821
528 h, Female, F344	–	39400	–
528 h, Female, Harlan Sprague Dawley	–	194	–
528 h, Male, F344	–	–	40.7
528 h, Male, Harlan Sprague Dawley	–	–	64400
864 h, Male, F344	–	12400	–
864 h, Male, Harlan Sprague Dawley	–	–	23800
1200 h, Male, Harlan Sprague Dawley	–	20800	19600

Settings	concentration in plasma [ng/mL]
[8]	71000

O=C(O)CCC(F)(F)C(F)(F)C(F)(F)C(F)(F)C(F)(F)C(F)(F)C(F)(F)F [Fluorotelomer acid 7+3]
Settings	concentration in plasma [ng/mL]
[14]	239
[16]	1530
[17]	712
[18]	4830
[19]	3430

concentration in plasma [ng/mL]
Settings	[15]	[20]	[21]
0.75 h	–	–	1290
48 h	321	905	1330
192 h	75.9	413	–

concentration in plasma [ng/mL], [2], oral
Settings	Harlan Sprague Dawley	Harlan Sprague Dawley - this seems too small
0.25 h, dosed: Fluorotelomer alcohol 8+2, 24 mg/kg, Male	20.1	–
0.25 h, dosed: Fluorotelomer alcohol 8+2, 40 mg/kg, Female	53.3	–
0.25 h, dosed: Fluorotelomer alcohol 8+2, 48 mg/kg, Male	45.2	–
0.25 h, dosed: Fluorotelomer alcohol 8+2, 80 mg/kg, Female	76.5	–
0.25 h, dosed: Fluorotelomer alcohol 8+2, 160 mg/kg, Female	79.2	–
0.5 h, dosed: Fluorotelomer alcohol 8+2, 24 mg/kg, Male	267	137
0.5 h, dosed: Fluorotelomer alcohol 8+2, 40 mg/kg, Female	495	–
0.5 h, dosed: Fluorotelomer alcohol 8+2, 48 mg/kg, Male	301	–
0.5 h, dosed: Fluorotelomer alcohol 8+2, 80 mg/kg, Female	650	–
0.5 h, dosed: Fluorotelomer alcohol 8+2, 160 mg/kg, Female	524	–
0.75 h, dosed: Fluorotelomer alcohol 8+2, 24 mg/kg, Male	476	–
0.75 h, dosed: Fluorotelomer alcohol 8+2, 40 mg/kg, Female	1030	–
0.75 h, dosed: Fluorotelomer alcohol 8+2, 48 mg/kg, Male	655	–
0.75 h, dosed: Fluorotelomer alcohol 8+2, 80 mg/kg, Female	1330	–
0.75 h, dosed: Fluorotelomer alcohol 8+2, 160 mg/kg, Female	857	–
1 h, dosed: Fluorotelomer alcohol 8+2, 24 mg/kg, Male	503	–
1 h, dosed: Fluorotelomer alcohol 8+2, 40 mg/kg, Female	1310	–
1 h, dosed: Fluorotelomer alcohol 8+2, 48 mg/kg, Male	959	–
1 h, dosed: Fluorotelomer alcohol 8+2, 80 mg/kg, Female	1530	–
1 h, dosed: Fluorotelomer alcohol 8+2, 160 mg/kg, Female	3450	–
3 h, dosed: Fluorotelomer alcohol 8+2, 24 mg/kg, Male	1670	–
3 h, dosed: Fluorotelomer alcohol 8+2, 40 mg/kg, Female	3140	–
3 h, dosed: Fluorotelomer alcohol 8+2, 48 mg/kg, Male	1440	–
3 h, dosed: Fluorotelomer alcohol 8+2, 80 mg/kg, Female	4220	–
3 h, dosed: Fluorotelomer alcohol 8+2, 160 mg/kg, Female	8960	–
5 min, dosed: Fluorotelomer alcohol 8+2, 24 mg/kg, Male	0.717	–
5 min, dosed: Fluorotelomer alcohol 8+2, 48 mg/kg, Male	1.09	–
6 h, dosed: Fluorotelomer alcohol 8+2, 24 mg/kg, Male	1130	–
6 h, dosed: Fluorotelomer alcohol 8+2, 40 mg/kg, Female	2650	–
6 h, dosed: Fluorotelomer alcohol 8+2, 48 mg/kg, Male	3100	–
6 h, dosed: Fluorotelomer alcohol 8+2, 80 mg/kg, Female	5470	–
6 h, dosed: Fluorotelomer alcohol 8+2, 160 mg/kg, Female	8210	–
9 h, dosed: Fluorotelomer alcohol 8+2, 24 mg/kg, Male	820	–
9 h, dosed: Fluorotelomer alcohol 8+2, 40 mg/kg, Female	1830	–
9 h, dosed: Fluorotelomer alcohol 8+2, 48 mg/kg, Male	495	–
9 h, dosed: Fluorotelomer alcohol 8+2, 80 mg/kg, Female	3540	–
9 h, dosed: Fluorotelomer alcohol 8+2, 160 mg/kg, Female	1620	–
12 h, dosed: Fluorotelomer alcohol 8+2, 24 mg/kg, Male	792	–
12 h, dosed: Fluorotelomer alcohol 8+2, 40 mg/kg, Female	1500	–
12 h, dosed: Fluorotelomer alcohol 8+2, 48 mg/kg, Male	853	–
12 h, dosed: Fluorotelomer alcohol 8+2, 80 mg/kg, Female	2430	–
12 h, dosed: Fluorotelomer alcohol 8+2, 160 mg/kg, Female	1010	–
24 h, dosed: Fluorotelomer alcohol 8+2, 24 mg/kg, Male	451	–
24 h, dosed: Fluorotelomer alcohol 8+2, 40 mg/kg, Female	1010	–
24 h, dosed: Fluorotelomer alcohol 8+2, 48 mg/kg, Male	561	–
24 h, dosed: Fluorotelomer alcohol 8+2, 80 mg/kg, Female	1590	–
24 h, dosed: Fluorotelomer alcohol 8+2, 160 mg/kg, Female	2580	–
48 h, dosed: Fluorotelomer alcohol 8+2, 24 mg/kg, Male	278	–
48 h, dosed: Fluorotelomer alcohol 8+2, 40 mg/kg, Female	183	–
48 h, dosed: Fluorotelomer alcohol 8+2, 48 mg/kg, Male	468	–
48 h, dosed: Fluorotelomer alcohol 8+2, 80 mg/kg, Female	1050	–
48 h, dosed: Fluorotelomer alcohol 8+2, 160 mg/kg, Female	2330	–
192 h, dosed: Fluorotelomer alcohol 8+2, 40 mg/kg, Female	99.7	–
192 h, dosed: Fluorotelomer alcohol 8+2, 48 mg/kg, Male	73.9	–
192 h, dosed: Fluorotelomer alcohol 8+2, 80 mg/kg, Female	346	–
192 h, dosed: Fluorotelomer alcohol 8+2, 160 mg/kg, Female	82	–
